The structures appear in SMILES notation. Out of some 310,000 compounds screened, about 14,000 (4.5%) showed an effect of 50% or more. The effect is printed as a negative number. Some of the results follow.
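Also: peak tail current of the secondary pulse compared with the same well before compound.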

Sequence of human ether-à-go-go-related gene (hERG) potassium channel (Q12809 whole entry, looked up): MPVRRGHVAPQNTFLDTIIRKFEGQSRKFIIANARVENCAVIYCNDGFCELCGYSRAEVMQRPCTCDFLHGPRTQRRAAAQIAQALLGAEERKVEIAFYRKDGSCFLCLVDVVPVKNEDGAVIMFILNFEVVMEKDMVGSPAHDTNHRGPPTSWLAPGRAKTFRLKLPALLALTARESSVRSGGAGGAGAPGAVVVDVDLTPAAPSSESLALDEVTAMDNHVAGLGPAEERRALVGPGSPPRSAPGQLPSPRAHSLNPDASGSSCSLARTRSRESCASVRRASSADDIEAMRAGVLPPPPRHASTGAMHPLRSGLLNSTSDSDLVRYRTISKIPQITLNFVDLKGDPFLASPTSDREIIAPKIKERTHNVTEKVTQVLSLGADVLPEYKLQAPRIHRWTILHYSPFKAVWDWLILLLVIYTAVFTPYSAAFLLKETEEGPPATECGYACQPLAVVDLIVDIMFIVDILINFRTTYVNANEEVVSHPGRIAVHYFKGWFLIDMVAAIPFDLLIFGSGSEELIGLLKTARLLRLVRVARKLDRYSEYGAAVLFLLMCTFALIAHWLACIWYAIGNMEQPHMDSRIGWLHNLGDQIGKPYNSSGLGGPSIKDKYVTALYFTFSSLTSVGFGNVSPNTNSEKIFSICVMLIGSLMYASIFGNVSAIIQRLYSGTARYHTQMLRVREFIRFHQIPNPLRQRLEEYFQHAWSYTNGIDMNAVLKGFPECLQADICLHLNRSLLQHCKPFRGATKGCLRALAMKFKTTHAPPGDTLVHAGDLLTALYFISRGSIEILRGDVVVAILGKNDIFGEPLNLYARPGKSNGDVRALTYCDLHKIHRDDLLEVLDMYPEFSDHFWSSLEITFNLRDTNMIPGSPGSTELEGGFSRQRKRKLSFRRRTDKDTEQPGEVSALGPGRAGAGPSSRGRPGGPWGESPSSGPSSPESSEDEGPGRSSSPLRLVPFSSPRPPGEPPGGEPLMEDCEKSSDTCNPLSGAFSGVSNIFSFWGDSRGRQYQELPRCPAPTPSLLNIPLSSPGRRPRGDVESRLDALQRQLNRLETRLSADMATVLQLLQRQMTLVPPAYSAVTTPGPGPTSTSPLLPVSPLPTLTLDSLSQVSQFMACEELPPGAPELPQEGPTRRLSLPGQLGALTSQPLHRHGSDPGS

This assay addresses human ether-à-go-go-related gene (hERG) potassium channel (human, UniProt Q12809). Briefly: primary screen, population patch clamp on CHO cells stably expressing hERG.
As for `C/C(=C/c1ccccc1)C(=O)N1CCN(c2ccc(F)cc2)CC1`, the “hERG current change (%, negative = inhibition) at 10uM” value is recorded as -42.2%.

As to `O=C(CSc1nc2[nH]ncc2c(=O)n1-c1ccc(Cl)c(Cl)c1)NCc1ccccc1Cl`, the “hERG current change (%, negative = inhibition) at 10uM” value is -11.4%.

Regarding `On1nnc2cc(C(F)(F)F)ccc21`, the “hERG current change (%, negative = inhibition) at 10uM” value amounted to 27.7%.

For the compound `CCOC(=O)C1=C(c2ccccc2)N=C2SCC(=O)N2C1c1cccc(OC)c1` (centres unmarked), the “hERG current change (%, negative = inhibition) at 10uM” value is recorded as -20.2%.

As to `O=S(=O)(c1ccc(Br)cc1)n1c(Cc2ccccc2)nc2ccccc21`, the “hERG current change (%, negative = inhibition) at 10uM” value amounted to 2.17%.

Regarding `CCc1ccc(NC(=O)CN(N=Nc2nonc2C)c2nonc2C)cc1`, the “hERG current change (%, negative = inhibition) at 10uM” value was 3.47%.

On to `O=C(CNC(=O)c1cccnc1)N/N=C/c1ccc(O)cc1O`, for which the “hERG current change (%, negative = inhibition) at 10uM” value was 8.97%.

Consider `COc1ccccc1N1CCN(C(=O)c2sc3nc4n(c(=O)c3c2C)CCC4)CC1`, for which the “hERG current change (%, negative = inhibition) at 10uM” value amounted to 13.1%.

Take `COc1ccc(N(CC(=O)N2CCc3ccccc3C2)S(C)(=O)=O)cc1Cl`: the “hERG current change (%, negative = inhibition) at 10uM” value is given as -25.7%.

With `Cc1ccc(C(=O)NC(C)c2nnc(SCC(=O)NC3CCCC3)n2C)cc1` (centres unmarked), the “hERG current change (%, negative = inhibition) at 10uM” value was -14%.

On to `CC(C)Oc1cccc(-c2cc(C(=O)NN3CCOCC3)c3ccccc3n2)c1`, for which the “hERG current change (%, negative = inhibition) at 10uM” value is reported as -60.8%.

As to `CC(=O)NCC(=O)OCC(=O)c1ccc(Cl)cc1`, the “hERG current change (%, negative = inhibition) at 10uM” value turned out to be 18%.

Take `COc1ccc(C(=S)N2CCNCC2)cc1`: the “hERG current change (%, negative = inhibition) at 10uM” value is reported as 3.52%.

As for `Cc1cc2nc(-c3ccc(SCc4ccccn4)nc3)[nH]c2cc1C`, the “hERG current change (%, negative = inhibition) at 10uM” value amounted to 2.32%.

With `Cc1ccc(C(=O)ONc2ccc(N=O)cc2)cc1`, the “hERG current change (%, negative = inhibition) at 10uM” value amounted to 9.94%.

`Cl.O=C(CCN1CCOCC1)NCc1ccccc1`: the “hERG current change (%, negative = inhibition) at 10uM” value was 14.6%.

Regarding `Cc1ccc2c(c1)-c1ccccc1S(=O)(=O)N2`, the “hERG current change (%, negative = inhibition) at 10uM” value is reported as -1.12%.

`CCN(CC(=O)Nc1c(F)cccc1F)C(=O)CN1C(=O)C2CCCCC2C1=O` (centres unmarked): the “hERG current change (%, negative = inhibition) at 10uM” value stood at 8.49%.

Regarding `CCCn1c(=O)c2[nH]c(-c3ccc(OCC(=O)Nc4ccc(C#N)cc4)cc3)nc2n(CCC)c1=O`, the “hERG current change (%, negative = inhibition) at 10uM” value is given as 16.5%.

In the case of `c1ccc(-c2ncnc3cc4n(c23)CCC4)cc1`, the “hERG current change (%, negative = inhibition) at 10uM” value worked out at 11.3%.

For `O=C(NCCc1ccc(Cl)cc1)c1ccc(Br)s1`, the “hERG current change (%, negative = inhibition) at 10uM” value was 3.22%.

For `COc1ccc(N(CC(=O)Nc2ccccc2F)S(=O)(=O)c2ccc(C)c([N+](=O)[O-])c2)cc1`, the “hERG current change (%, negative = inhibition) at 10uM” value is listed as 7.94%.

In the case of `O=C1CCCN1CCCN1CC(C(=O)N(CCO)Cc2ccccc2)CCC1=O` (centres unmarked), the “hERG current change (%, negative = inhibition) at 10uM” value stood at 13.9%.

Turning to `CC(=O)c1cccc(NC(=O)C2CC(=O)N(c3cccc(C)c3C)C2)c1` (centres unmarked), the “hERG current change (%, negative = inhibition) at 10uM” value is recorded as -9.35%.

`COC(=O)c1c(NC(=O)c2ccccc2[N+](=O)[O-])sc2c1CC(C)(C)NC2(C)C`: the “hERG current change (%, negative = inhibition) at 10uM” value was -6.93%.

Take `CCOC(=O)c1ccc(N=C2NC(=O)CS2)cc1`: the “hERG current change (%, negative = inhibition) at 10uM” value is -1.47%.

Consider `CCC(=O)NCCc1nc(-c2ccccc2)no1`, for which the “hERG current change (%, negative = inhibition) at 10uM” value is on record as 4.98%.

Consider `O=C(Cc1ccc(-n2c(=O)c3ccccc3n(Cc3ccccc3Cl)c2=O)cc1)NCC1CCCO1` (centres unmarked), for which the “hERG current change (%, negative = inhibition) at 10uM” value is reported as -1.93%.

Take `COc1ccc(F)cc1C(=O)C1CCCN(Cc2cccn2-c2cccnc2)C1` (centres unmarked): the “hERG current change (%, negative = inhibition) at 10uM” value was -47%.

In the case of `NC(=O)c1ccc(SCC(=O)OCC(=O)NCC2CCCCC2)c([N+](=O)[O-])c1`, the “hERG current change (%, negative = inhibition) at 10uM” value is on record as -5.21%.

As to `CCCCC(=O)Nc1cc2nn(-c3ccc(OC)cc3)nc2cc1C`, the “hERG current change (%, negative = inhibition) at 10uM” value came out at 14.9%.

On to `CCOc1ccc(N=Nc2c(N)[nH][nH]c2=O)cc1`, for which the “hERG current change (%, negative = inhibition) at 10uM” value is given as 0.38%.

As for `CCN(CC)S(=O)(=O)c1ccc2[nH]cc(C(=O)NCCC3=CCCCC3)c(=O)c2c1`, the “hERG current change (%, negative = inhibition) at 10uM” value turned out to be 4.34%.

For the compound `Cc1ccc(Cc2cnc(N3C(=N)SC(C)C3=O)s2)cc1` (centres unmarked), the “hERG current change (%, negative = inhibition) at 10uM” value is recorded as 16%.

With `CCCCCn1c(=O)c(C(=O)NCc2ccncc2)c(O)c2ccccc21`, the “hERG current change (%, negative = inhibition) at 10uM” value is given as -53.7%.

In the case of `Cc1onc(-c2c(F)cccc2Cl)c1C(=O)NCC1COc2ccccc2O1` (centres unmarked), the “hERG current change (%, negative = inhibition) at 10uM” value is on record as -8.14%.

For the compound `Nc1nc2c(s1)CCCCCCCCCC2`, the “hERG current change (%, negative = inhibition) at 10uM” value is 8.74%.

As to `Cc1cc(C)c(C(=O)N2CCC(N3CCC(C(=O)NC(C)C)CC3)CC2)o1`, the “hERG current change (%, negative = inhibition) at 10uM” value turned out to be 0.334%.

Regarding `COC(=O)CSc1nnc(-c2ccc(OC)cc2OC)o1`, the “hERG current change (%, negative = inhibition) at 10uM” value is listed as -11.8%.

Take `CCCCOC(=O)Nc1sc2c(c1C(=O)OC)CCC2`: the “hERG current change (%, negative = inhibition) at 10uM” value is on record as -17.3%.

As for `C#CCN(C)CC/C=C1\c2ccccc2CSc2ccccc21.Cl`, the “hERG current change (%, negative = inhibition) at 10uM” value is reported as -8.71%.

With `Cc1cc(N)n(-c2nc3ccccc3s2)n1`, the “hERG current change (%, negative = inhibition) at 10uM” value is given as 9.54%.

As for `CC1CCCC(C)N1CCNC(=O)Cn1nc(-c2ccccc2)ccc1=O` (centres unmarked), the “hERG current change (%, negative = inhibition) at 10uM” value is recorded as -18.9%.

For `CCOc1ccc(NC(=O)CSc2nnc(Cc3cccn3C)n2-c2ccc(OC)cc2)cc1`, the “hERG current change (%, negative = inhibition) at 10uM” value is -8.98%.

`CSc1ccccc1NC(=O)CO/N=C(\C)c1cc2ccccc2o1`: the “hERG current change (%, negative = inhibition) at 10uM” value was 13.6%.

As for `COc1ccc(C(=O)C2CCCN(C(=O)CSC)C2)cc1OC` (centres unmarked), the “hERG current change (%, negative = inhibition) at 10uM” value is 8.85%.

As for `O=S(=O)(c1ccc(N2CCCC2)cc1)C(F)(F)F`, the “hERG current change (%, negative = inhibition) at 10uM” value was 10.7%.

On to `CCOC(=O)C1=C(COC(=O)C(CC)c2ccccc2)NC(=O)NC1C` (centres unmarked), for which the “hERG current change (%, negative = inhibition) at 10uM” value is listed as -2.24%.

With `COc1cc(SC)ccc1C(=O)OCC(=O)NCCC1=CCCCC1`, the “hERG current change (%, negative = inhibition) at 10uM” value is listed as -6.93%.

Turning to `COc1ccccc1-c1nnc(NC(=O)c2ccccc2F)o1`, the “hERG current change (%, negative = inhibition) at 10uM” value amounted to 4.29%.

Turning to `CCCc1cc(SCC(=O)Nc2c(C)n(C)n(-c3ccccc3)c2=O)n2c(nc3ccccc32)c1C#N`, the “hERG current change (%, negative = inhibition) at 10uM” value was 10.5%.

As for `O=C(OCC(=O)c1c[nH]c2ccccc12)C1=COCCO1`, the “hERG current change (%, negative = inhibition) at 10uM” value was found to be 12.8%.

Turning to `Cc1c(C(=O)NCC2CCCO2)oc2ccc3c(c12)C(=O)CC(C)(C)O3` (centres unmarked), the “hERG current change (%, negative = inhibition) at 10uM” value was 2.71%.

Take `FC(F)(F)c1nc2nncn2c2c1CCCCC2`: the “hERG current change (%, negative = inhibition) at 10uM” value was -7.44%.

For the compound `Cc1cccc(N2CC3=C(C2=O)C(c2ccccc2)NC(=O)N3C)c1` (centres unmarked), the “hERG current change (%, negative = inhibition) at 10uM” value is -14.6%.

`COC(=O)CCC(=O)Nc1nccs1`: the “hERG current change (%, negative = inhibition) at 10uM” value is recorded as 5.89%.

`O=C(CCc1nc(-c2ccccc2F)no1)Nc1cccnc1`: the “hERG current change (%, negative = inhibition) at 10uM” value amounted to 3.85%.

On to `CCc1ccccc1NC(=O)c1cc(-c2cccs2)on1`, for which the “hERG current change (%, negative = inhibition) at 10uM” value is 12.3%.

For `CN(C(=O)CN1C(=O)NC(c2ccccc2)(c2ccccc2)C1=O)C1CCS(=O)(=O)C1` (centres unmarked), the “hERG current change (%, negative = inhibition) at 10uM” value stood at 0.0325%.

(Values after article PMC4336329 (PLoS ONE, 2015).)
